# Results published in the RNAGym collection of RNA variant scans (doi:10.7554/elife.90254).
# Read counts are not given, so values of variants with three or more changes are uncertain.
# B1: LINE1-mini (parent)
# chain: GGCAGAGCUCAACACAGCGUGGCAAAGUGGCUGUGGCUAGACUGCC
# Variants of: B1
# Test: self-cleavage, relative activity (ratio to wild type); higher = more cleavage; in vitro, sequencing; the parent is a self-cleaving ribozyme
row,Variant,self-cleavage
1,GGGAGAGCUCAACACAGCGUGGCAAAGUGGCUGUGGCUAGUCUGCU [C3G A41U C46U],0.32
2,GGGAGAGCUCAACACAGCGUGGCGGAGUGGCUGUGGCUAGACUGCC [C3G A24G A25G],0.17
3,GGGAGUGCUCAACAGAGCUUGGCAAAGUGGCUGUGGCUAGACUGCC [C3G A6U C15G G19U],0.05
4,GGGAGAGUUUAACACGGCGUGGCAAAGUGGCUGUGGCUAGACUGCC [C3G C8U C10U A16G],0.02
5,GGGAGAGCUCCACACAGCGUGGGAAAGUGGCUGUGGCUAGACUGCU [C3G A11C C23G C46U],0.01
6,GGGAGAGCUCAACUCAGCGUGGCAAUGUGGCUGUGGCUAGACAGCC [C3G A14U A26U U43A],0.53
7,GGGAGAGCUCAGCACAGCGUGACAAAGUGGCUGUGGCAAGACUGCC [C3G A12G G22A U38A],0.05
8,GGGAGAGCUCAACACAGCGUGGCAUAGUGGCUGUGGCUAGACUGAC [C3G A25U C45A],0.14
9,GGGAGUGCUCAACACAUCGUGGCAAAGUGGCUGCGGCUAUACUGCC [C3G A6U G17U U34C G40U],0.11
10,GGGAGAGUUCAACACAGCGUGGCGAGGUGGCUGUUGCUAGACUGCG [C3G C8U A24G A26G G35U C46G],0.19
11,GGGAGAGGUCUACACAUCGGGGCGAAGUGGCGGUCGCUAGACUGCC [C3G C8G A11U G17U U20G A24G U32G G35C],0.01
12,GGGAGAGCUCAUCACAGCGUUGCAAAGUGCCUGUGGCUAGACUGCC [C3G A12U G21U G30C],0.18
13,GGGAGUGCUCAACACAGCGCGCCGAAGUGGCUCUGGCUGGACUGCC [C3G A6U U20C G22C A24G G33C A39G],0.11
14,GGGAGAGCUCUACACAGCGUGGCAAAGUGGCUGUUGAUAGACUGCC [C3G A11U G35U C37A],0.01
15,GGGAGAGGUCAGAAGAGCGUGGCAAAGUGGCUGUGGCUAGACUGCC [C3G C8G A12G C13A C15G],0.03
16,GGGAGAGCUCAACACAGCGUGGCGAACUGGCUGUGGCUAGACUGGC [C3G A24G G27C C45G],0.03
17,GGGAGAGCUCUACACAGCGUGGUAAAGUGAAUGUGGCUAGUUUCCC [C3G A11U C23U G30A C31A A41U C42U G44C],0
18,GGGAGAGCUCAACUCAACGUGACAAAGUGGUUGUGGCUAGACUGCC [C3G A14U G17A G22A C31U],0.04
19,GGGAGUGCUCAACACAGCGAGGCAAAGUAGCAGUGGCUAGACUGCU [C3G A6U U20A G29A U32A C46U],0.04

row,Variant,self-cleavage
1,GGGAGUGCUCAUCGAAGGGUGGCAAAGUGGAGGUGGCUAGACUGCC [C3G A6U A12U A14G C15A C18G C31A U32G],0.02
2,GGGAGAGCUCAACACCGCGUGGCAAAGUGGCUCUGGCUAGACUGCC [C3G A16C G33C],0.07
3,GGGAGAGCUCAACGCAGCGUGGCAAAGUGGCUGUGGCUACACUGCC [C3G A14G G40C],0.02
4,GGGAGAGCUCAACACAGCGUGGCAAGGUGGCUGAGGCUAGACUGCC [C3G A26G U34A],0.3
5,GGGAGAGCUCAACCCAGCGUGGCAAUGUGGCUGUGGCUAGACUGCC [C3G A14C A26U],0.1
6,GGGAGAGCUCAACACAGCGUGGCAAGGUGGCUGUGGUUAGACUGCC [C3G A26G C37U],0.01
7,GGGAGAGGUCAACACACCGUGGCAAAGUUGCUAUGGGUAGACUGCC [C3G C8G G17C G29U G33A C37G],0.09
8,GGGAGAGCUCAGCAGAGCGUGGGAAAGAGGCUGUGGCUAGACUGCC [C3G A12G C15G C23G U28A],0.01
9,GGGAGAGCUCACCACAGCGUGGCAAAGUGGCUGUGGAUGGACUCCC [C3G A12C C37A A39G G44C],0.01
10,GGGAGAGUUCAACACAGCGUGGCAAAGUGGCUGUGGCUAGACCGCC [C3G C8U U43C],0.05
11,GGGAGAGCUCAACACAGCGUGGCGAAGGGGCUGUGGCUAGACUGCC [C3G A24G U28G],0.3
12,GGGAGAGCUCGACACAGGGUGGCAAAGUGGCUGUGUCUAGACUGCU [C3G A11G C18G G36U C46U],0.01
13,GGGAGAGCUCAACUCAGCUUAGCAAGGUGGCUGUGGCUAGACUGCC [C3G A14U G19U G21A A26G],0.24
14,GGGAGAGCUAAACACAGAGUGGCAAAGUGGCUGUGGCUAGACUGCC [C3G C10A C18A],0.02
15,GGGAGAGCUCAACACAGCGUGGCAACGUGUCUGUGGCUAGACUGCC [C3G A26C G30U],0.25
16,GGGAGUGCUCAACACAGCGAGGCAAAGCGGCUGUGGCUAGACUGCC [C3G A6U U20A U28C],0.13
17,GGGAGAGCUCAGCACAGUGUGGCAAAGUGGCUGUGGCUAGACUGCC [C3G A12G C18U],0.13
18,GGGAGAGCUCAACCCAGCGUGGCAAAGUGGCUGUGGCUAGAUUGCC [C3G A14C C42U],0.06
19,GGGAGAGUUCCACACAGCGUGGCAAAGUGGCUGUGGUUAGACUGCC [C3G C8U A11C C37U],0.31

row,Variant,self-cleavage
1,GGGAGAGCUCAUCACAGCGUGGCACAGUAUAUGUGGUUAGACUGCC [C3G A12U A25C G29A G30U C31A C37U],0.05
2,GGGAGAGCUCAGCACAGCGUGGCAAAGUGUCUGUGGCUAGACUGCC [C3G A12G G30U],0.34
3,GGGAGAGAUCAACACAGCGUGGCAAAGUGGCUGUGGCUGGCCUGAC [C3G C8A A39G A41C C45A],0.06
4,GGGAGAGCUCGACACAGCGUGGCACAGUGGCUGUGACUAGACUGCC [C3G A11G A25C G36A],0.12
5,GGGAGAGAUCAACACAGCGUGGCAAAGUGGCAGUGGCUAGAGUGCC [C3G C8A U32A C42G],0.16
6,GGGAGAGCUAAACUCAGCGUGGCAAAUUGGCUGUGGCUAGACUGCC [C3G C10A A14U G27U],0.04
7,GGGAGUGCUCAACACAGCGUGGCAAAGUGGAUGUGGCUAGACUGCC [C3G A6U C31A],0.12
8,GGGAGAGCUCACCACAGCGUGGCAAAGUGGCUGUCGCUAGACUGCC [C3G A12C G35C],0
9,GGGAGAGCUCCACACAGCGUGGCAAAGUGGCUGAGGCUAGAAUGCC [C3G A11C U34A C42A],0.02
10,GGGAGAGCUCAACACCGCGUGGUAAAGUGGCUAUGGCUAGACUGCC [C3G A16C C23U G33A],0.03
11,GGGAGAGAUCAACACAGGGUGGCAAAGUGGCUGUCGCUAGACUGCC [C3G C8A C18G G35C],0.36
12,GGGAGAGCUCAACACAGCGUGGCGUAGUGCCCGUGGCUGGACUGCC [C3G A24G A25U G30C U32C A39G],0.25
13,GGGAGAGCUCAACACAGCGUGGCAACGUGGAUGUGGAUCGACUGCC [C3G A26C C31A C37A A39C],0.17
14,GGGAGAGCUAAACACAGCGUGGCAAAGUGGCUGUGGCUAGUCUGCC [C3G C10A A41U],0.06
15,GGGAGAGCUCAACUCAGCGUGGCAAAGUGGCUGUGGCUAGACUGCU [C3G A14U C46U],0.17
16,GGGAGAGCUCAACACAGCGUGGCCACGUGCCUGUGGCUAGCCUGGC [C3G A24C A26C G30C A41C C45G],0.05
17,GGGAGAGCUCAACGCAGCAUGGCAACGUGGCUGUGGCUAGACUGCC [C3G A14G G19A A26C],0.15
18,GGGAGUGCUCUACACAGCGUGGCAAAGUGGCUGUGGCUAGACUGCC [C3G A6U A11U],0.03
